Results: PubChem BioAssay AID1347416 (National Center for Advancing Translational Sciences (NCATS), 2020)
Among all 4,100 compounds or so, about 1,600 (39%) were called active. This list was built around the results that the source calls inconclusive (neither active nor inactive); the mix of calls is not that of the screen. Calls follow the shape of the dose curve; as a rule, active = well fitted inhibition curve with a large enough effect; inconclusive = small, poorly fitted or top-dose-only effect; inactive = no such curve, though single readings can be large or run the other way. Where the call is inconclusive, the potency comes from a doubtful curve fit.

experiment: qHTS Validation assay for Inhibitors of Plasmodium falciparum Dd2 growth in vitro; also: nearly all actives have a fitted effect of over 70% in size; settings: P. falciparum Dd2 in RBCs, SYBR Green growth, 72 h; activity change, negative = inhibition: at 28.7 µM (top of the series) unless noted
In short: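 P. falciparum Dd2-infected red blood cells (2.5% hematocrit, 0.3% parasitemia) grown 72 h at 37 °C under 5% O2 with compounds in a titration, 29 uM to 0.5 nM final. Growth read as SYBR Green-1 fluorescence after ~16 h lysis; artesunate 300 nM as positive control.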
% is scaled to controls: 0 for no effect and ±100 for the full control effect; potency is read from the fitted curve at half-maximal effect; tags tell the direction and shape of the fitted curve.

Potency, inconclusive:
O=c1c2c([nH]c3ccccc13)CCCCCC2 18.8 µM [inhibitor, single point]
Cc1ccc2nc(N3C(=O)CNC3=S)sc2c1 8.41 µM [inhibitor, partial curve, poor fit]
CC(C)OC(=O)c1c(NC(=O)C2c3ccccc3Oc3ccccc32)sc2c1CCCC2 7.5 µM [inhibitor, partial curve, poor fit]
CCOC(=O)Cn1c(=O)n(C2CCCCC2)c2nc(-c3ccc(C(C)C)cc3)nc(C(N)=O)c21 16.8 µM [inhibitor, single point]
Cc1nnc(-c2cc(-c3ccsc3)ccn2)n1Cc1ccccc1 0.0217 µM [inhibitor, full curve, poor fit]
CCOC(=O)c1ccccc1NC(=O)COc1ccccc1-c1nnc(-c2ccccc2)o1 16.8 µM [inhibitor, partial curve, poor fit]
CC(=O)Nc1ccc(C(=O)NC[C@@H]2C=C(C)[C@H](Cc3nnc(-c4ccccc4F)o3)C[C@H]2C(C)C)cc1 13.3 µM [inhibitor, single point]
O=C(NCCC1=CCCCC1)c1ccc2c(=O)n3nc(Nc4ccccc4)sc3nc2c1 4.73 µM [inhibitor, full curve]

Potency, active:
COc1cc2nc(NCCC(C)C)n3nc(-c4ccccc4)nc3c2cc1OC 0.422 µM
COc1ncccc1-c1nc(-c2c(C)noc2C)cc2c1cc(-c1ccccc1)n2C 13.7 µM
Oc1cc(NCc2ccccc2)cc2cccnc12 2.99 µM
Cc1cc(Nc2cccc(Cl)c2)nc(NCc2ccccc2)n1 8.41 µM
COc1ccc2c(c1)c(CN1CCCCCCN(C)C(=O)[C@@H]3CCC[C@@H]31)cn2C 15 µM
COc1ccc(-c2c(C)nn3c(N)c(C#N)cnc23)cc1OC 1.68 µM
Cc1ccc(Nc2cc(C)nn2-c2nc(C)cc(C)n2)cc1 6.68 µM
CCOC(=O)N1CCc2c(sc3c2c(=O)n(Cc2ccccc2)c(=O)n3Cc2ccccc2Cl)C1 4.73 µM

Activity change, negative = inhibition, inactive:
CC(C)c1noc(-c2cccn3c(CNC(=O)c4cccc(Cl)c4)nnc23)n1 -8.33%
Cc1noc(C)c1COC(=O)/C=C/c1ccc(Cl)cc1 -11.8%
CC(=O)N1CCN([C@H]2[C@@H]3OC[C@@H](O3)[C@@H](NC(=O)Nc3ccc(F)cc3)[C@@H]2O)CC1 41.4% [at 43.1 µM]
Cc1ccc2nc(-c3sc4nc(C)ccc4c3N)[nH]c2c1 -26.6%
CC(C(=O)N1CCCN(c2cc(-c3ccc(Cl)cc3)[nH]n2)CC1)c1ccccc1 (stereo unspecified) -15.7%
